From PubChem BioAssay AID504332 (National Center for Advancing Translational Sciences (NCATS), 2011)
Hit rate of the full screen: of about 350,000 compounds, about 31,000 (8.9%) were called active. The inconclusive results got no clear call from the source; some entries with a clear call stand among them for comparison. Calls come from the whole dose curve; as a rule, active = well fitted inhibition curve with a large enough effect; inconclusive = small, poorly fitted or top-dose-only effect; inactive = no such curve, though single readings can be large or run the other way. Potencies of inconclusive entries are doubtful fits and often do not repeat.

biological target: Histone-lysine N-methyltransferase EHMT2 (Homo sapiens) (UniProt Q96KQ7); experiment: qHTS Assay for Inhibitors of Histone Lysine Methyltransferase G9a; conditions: G9a H3K9 monomethylation, AlphaScreen, 2 h; activity, negative = inhibition: at 59 µM (top of the series) unless noted; note: nearly all actives have a fitted effect of over 75% in size
UniProt Q96KQ7, sequence (Q96KQ7 whole entry, looked up): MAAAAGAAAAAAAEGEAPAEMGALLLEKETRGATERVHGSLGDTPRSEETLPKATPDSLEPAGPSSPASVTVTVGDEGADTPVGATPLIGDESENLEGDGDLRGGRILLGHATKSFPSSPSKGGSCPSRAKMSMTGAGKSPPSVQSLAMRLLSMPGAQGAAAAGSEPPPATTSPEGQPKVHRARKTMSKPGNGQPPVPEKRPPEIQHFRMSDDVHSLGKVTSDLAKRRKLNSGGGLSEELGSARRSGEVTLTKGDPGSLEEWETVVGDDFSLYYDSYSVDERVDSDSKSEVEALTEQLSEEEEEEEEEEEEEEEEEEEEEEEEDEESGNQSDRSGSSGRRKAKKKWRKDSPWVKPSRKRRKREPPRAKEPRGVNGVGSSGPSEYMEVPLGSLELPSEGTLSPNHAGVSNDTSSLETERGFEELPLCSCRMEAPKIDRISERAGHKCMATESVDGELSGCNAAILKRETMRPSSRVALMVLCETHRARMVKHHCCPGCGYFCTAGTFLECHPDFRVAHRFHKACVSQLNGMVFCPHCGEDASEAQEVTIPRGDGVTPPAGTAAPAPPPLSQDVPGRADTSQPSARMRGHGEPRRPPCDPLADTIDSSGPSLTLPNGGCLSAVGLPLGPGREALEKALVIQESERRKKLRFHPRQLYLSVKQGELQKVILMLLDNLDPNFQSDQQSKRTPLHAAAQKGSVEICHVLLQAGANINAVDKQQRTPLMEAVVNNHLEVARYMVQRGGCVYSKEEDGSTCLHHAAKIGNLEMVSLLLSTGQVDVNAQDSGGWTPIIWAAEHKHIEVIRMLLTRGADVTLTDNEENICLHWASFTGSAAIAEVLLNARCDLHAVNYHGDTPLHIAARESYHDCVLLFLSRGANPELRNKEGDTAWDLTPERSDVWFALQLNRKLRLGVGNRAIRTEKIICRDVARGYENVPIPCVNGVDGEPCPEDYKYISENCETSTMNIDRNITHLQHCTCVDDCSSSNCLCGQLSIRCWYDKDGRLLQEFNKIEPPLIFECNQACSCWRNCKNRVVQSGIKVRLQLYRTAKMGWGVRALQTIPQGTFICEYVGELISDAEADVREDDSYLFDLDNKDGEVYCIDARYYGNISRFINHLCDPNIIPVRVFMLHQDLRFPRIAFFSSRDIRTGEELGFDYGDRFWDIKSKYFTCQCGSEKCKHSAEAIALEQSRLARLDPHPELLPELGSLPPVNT
How it was run: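 G9a (20 nM) preincubated 15 min RT with compounds, then 500 nM biotinylated H3K9 peptide and 20 uM SAM added; 2 h RT reaction. Monomethyl-H3K9 product detected by AlphaScreen with anti-H3K9me1 antibody, streptavidin donor and anti-rabbit IgG acceptor beads.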
% is set by controls: 0 for no effect and ±100 for the full control effect; potency is the fitted concentration of half-maximal effect; tags give direction and shape of the fitted curve.

SMILES	Potency	activity, negative = inhibition
CCCOc1cccc(C(=O)Nc2ccc(-c3cc4ccccc4oc3=O)c(C)c2)c1	inactive	–
COc1ccc(CN2CCNC(=O)C2CC(=O)NCc2cn[nH]c2-c2ccccc2)c(F)c1 (configuration not stated)	inconclusive: 79.4 µM [inhibitor, partial curve, poor fit]	–
CCOc1ccc(NC(=O)c2c3c(nc4ccccc24)CCC3)cc1	inconclusive: 20 µM [inhibitor, partial curve, poor fit]	–
COCCNC(=O)/C(C#N)=C/c1ccc(O)c([N+](=O)[O-])c1	inconclusive: 50.1 µM [inhibitor, partial curve]	–
O=Cc1c(Nc2ccccc2Cl)nc2ccccn2c1=O	–	inactive: 5.69% [at 0.501 µM]
CCNC(=S)N(Cc1cc2cc(C)ccc2[nH]c1=O)C1CCCC1	inconclusive: 8.91 µM [inhibitor, full curve, poor fit]	–
CCc1cccc(C)c1NC(=O)C1C2CCC(O2)C1C(=O)O (configuration not stated)	inactive	–
C=CCSc1ncccc1C(=O)NCCc1ccc(Cl)cc1	inconclusive: 79.4 µM [inhibitor, single point]	–
COc1ccc(NC(=O)N2CCN3CCCCC3C2)cc1OC (configuration not stated)	inactive	–
COc1ccc(CNc2ccc3c(c2)CCC3)cc1OC	active: 39.8 µM	–
CC(=O)Nc1ccc(S(=O)(=O)N2CCN(CC(=O)NC3CCCC3)CC2)cc1	inconclusive: 89.1 µM [inhibitor, single point]	–
CCCc1cc(=O)[nH]c(SC(C)C(=O)N2c3ccccc3CC2C)n1 (configuration not stated)	–	inconclusive: -126% [inhibitor] [at 12.7 µM]
COc1ccc(CC(=O)NNC(=O)c2cnccn2)cc1	active: 7.94 µM	–
O=C(COc1ccccc1)N1CCN(S(=O)(=O)c2ccc(Br)cc2)CC1	inconclusive: 89.1 µM [inhibitor, single point]	–
CSc1ccccc1NC(=O)CN(C)C(=O)Cn1c(=O)oc2ccccc21	active: 50.1 µM	–
CCN1CCN(c2ccc(NC(=O)c3cc(OC)c(OC)c(OC)c3)cc2)CC1	inconclusive: 89.1 µM [inhibitor, single point]	–
COc1ccc(OC)c(NC(=O)Cc2cccs2)c1	inconclusive: 70.8 µM [inhibitor, partial curve, poor fit]	–
O=C(CSc1nnc(Nc2ccccc2F)s1)NC1CCCC1	active: 8.91 µM	–
Cc1cc(CNC(=O)CC2C(=O)NCCN2Cc2ccccc2C(F)(F)F)nn1C (configuration not stated)	inconclusive: 0.562 µM [inhibitor, full curve, poor fit]	–
CC(C)(C)NC(=O)CN(C(=O)CN1C(=O)C(=O)c2ccccc21)C(C)(C)C	inactive	–
Cc1nn(-c2ccccc2)cc1/C=N/NS(=O)(=O)c1ccccc1	inconclusive: 79.4 µM [inhibitor, partial curve, poor fit]	–
Cc1ccc(C)c(N/C(N)=N/c2nc(C)cc(C)n2)c1	–	inactive: 29% [at 0.501 µM]
CC1=C(C)Cc2c(OC(=O)c3ccccc3)ccc(OC(=O)c3ccccc3)c2C1	inactive	–
COc1ccc([N+](=O)[O-])cc1-n1cccc1	inactive	–

SMILES	Potency	activity, negative = inhibition
CCOc1ccc(NC(=O)CC2Nc3cccc4cccc(c34)NC2=O)cc1 (configuration not stated)	inconclusive: 1.41 µM [inhibitor, full curve, poor fit]	–
CC(C)c1cccc(C(C)C)c1NC(=O)CNCc1ccccc1F	active: 7.94 µM	–
Cc1ccc(C2C(C(=O)c3cccs3)=C(O)C(=O)N2CCN2CCOCC2)o1 (configuration not stated)	inconclusive: 3.16 µM [inhibitor, single point]	–
Cc1ccc(-n2ncc(C(=O)NCc3ccc4c(c3)OCO4)c2C2CCN(C(=O)OC(C)(C)C)CC2)cc1C	inconclusive: 7.08 µM [inhibitor, partial curve, poor fit]	–
O=C(O)CC1COc2ccccc2N1S(=O)(=O)c1ccc(Br)cc1 (configuration not stated)	inactive	–
N#C/C(=C/c1cn(CC(=O)O)c2ccccc12)C(=O)Nc1ccccc1	inconclusive: 56.2 µM [inhibitor, partial curve, poor fit]	–
COCCN1CN(S(=O)(=O)c2ccc(Cl)cc2)c2nc3ccccc3nc21	inconclusive: 39.8 µM [inhibitor, single point]	–
CCOC(=O)c1c(C)[nH]c(C)c1S(=O)(=O)N(C)CC(=O)Nc1cccc(Cl)c1C	inactive	–
C/C=C/c1ccc(OC(C)=O)c(OC)c1	inactive	–
CCN(CC)CC(=O)Nc1cccc2c1C(=O)c1ccccc1C2=O	inconclusive: 31.6 µM [inhibitor, single point]	–
O=C(NC(=S)Nc1cccc(F)c1)c1cccc([N+](=O)[O-])c1	inconclusive: 89.1 µM [inhibitor, single point]	–
Cc1nc2nc3c(cn2n1)C(=O)CC(c1ccccc1)C3 (configuration not stated)	active: 56.2 µM	–
Cc1cc(C)nc(Nc2nc3ccccc3o2)n1	inactive	–
Cc1cc(C(=O)CSc2nc3ccccc3n2CCC#N)c(C)n1Cc1cccs1	–	inactive: -39.3% [at 12.7 µM]
CCN1CCN(C(=O)CN2C(=O)c3cccc4cccc2c34)CC1	inconclusive: 1.26 µM [inhibitor, full curve]	–
CCN(CC)Cc1c(O)c(Cl)cc2c(C)c(C)c(=O)oc12	inactive	–
CC(C)CNC(=O)COC(=O)c1c2c(nc3ccccc13)CCC2	inconclusive: 89.1 µM [inhibitor, single point]	–
COC(=O)C1=NNC2(c3ccc(C)cc3)C(=O)N(c3ccc(C)cc3)C(=O)C12 (configuration not stated)	inactive	–
CN(C(=O)CSc1nc2ccc(NC(=O)COc3ccc(F)cc3)cc2s1)c1ccccc1	inactive	–
CC(=O)COC(=O)C1CCN(S(=O)(=O)c2cc([N+](=O)[O-])ccc2Cl)CC1	inconclusive: 31.6 µM [inhibitor, single point]	–
Cc1cc(OCC(=O)NNC(=S)NCC2CCCO2)cc(C)c1Cl (configuration not stated)	inconclusive: 79.4 µM [inhibitor, single point]	–
O=C(c1ccccc1Cl)N1CCCC(c2nc3c(nnn3Cc3ccc(F)cc3F)c(=O)[nH]2)C1 (configuration not stated)	inactive	–
O=C(Cc1c(Cl)cccc1Cl)OCc1ccccn1	inactive	–
